Source: PubChem BioAssay AID1508624 (National Center for Advancing Translational Sciences (NCATS), 2021)
The whole screen tested about 48,000 compounds, of which about 120 (0.25%) were called active. About 4% were inconclusive and are not listed. Calls come from the whole dose curve; as a rule, active = well fitted activation curve with a large enough effect; inconclusive = small, poorly fitted or top-dose-only effect, or another doubt; inactive = no such curve, though single readings can be large or run the other way. The list shows a part of the results.

test: Primary qHTS for Identification of Small Molecule Activators of Huntingtin-Antisense Promoter Activity; conditions: HEK293 HTT-AS promoter firefly luciferase reporter, 24 h; series mostly up to 57.5 µM; activity change, positive = activation: at the top concentration; note: nearly all actives have a fitted effect of over 55% in size
Outline: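 Quantitative HTS used concentration series of up to 57.5 uM final on HEK293 luciferase reporter cells, 24 h at 37 degrees C. Readout was Dual-Glo firefly luminescence.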

Activity change, positive = activation, inactive:
COc1cccc(Cn2c(=O)cc(C)c3c(C)nn(C)c32)c1 -30.6%
Cc1c(C(=O)NCc2ccc(Cl)cc2)sc2nc3n(c(=O)c12)CCCCC3 -10.9%
COc1ccc(S(=O)Cc2ccc(C(=O)N3CCN(c4cccc(C)c4C)CC3)o2)cc1 (centres undefined) -39.6%
CCc1nn2c(-c3ccccc3OC)ccnc2c1-c1ccccc1 -18%
O=C(Nc1ccc(C(=O)OCc2cc(=O)n3c4c(sc3n2)CCCC4)cc1)c1ccc(F)cc1 -4.64%
O=C(CCCCn1c(=O)c2ccccc2n(CC(=O)Nc2cccc(C(F)(F)F)c2)c1=O)NCc1ccc2c(c1)OCO2 -36.5%
CCN(CC)S(=O)(=O)c1ccc(C(=O)N2CC(=O)Nc3ccc(F)cc3C2c2ccccc2)cc1 (centres undefined) 3.11%
C#C[C@]1(OC(C)=O)CC[C@H]2[C@@H]3CCC4=C[C@@H](OC(C)=O)CC[C@@H]4[C@H]3CC[C@@]21C -22.4%
CC(C)(C)OC(=O)N1CCC(c2c(C(=O)NCCc3ccccc3)cnn2-c2ccc(F)cc2)CC1 -0.432%
O=C(C1CCN(S(=O)(=O)c2ccc(Br)s2)CC1)N1CCN(c2ccccc2)CC1 -30.9%
COc1ccc(CCN2C(=O)NC(NS(=O)(=O)c3ccc(NC(C)=O)cc3)(C(F)(F)F)C2=O)cc1OC (centres undefined) -5.36%
CC(=O)Nc1ccc2nc(SCCOc3cc(C)cc(C)c3)sc2c1 -37.6%
CC(=O)N1c2ccc(S(=O)(=O)NCC3CCC(C(=O)Nc4cc(C)ccc4C)CC3)cc2CC1C (centres undefined) -38.5%
COc1cc(NC(=O)c2c(C)oc3c2C2=NCCN2C=N3)cc(OC)c1OC 4.26%
CCc1ccc(-c2nn(CC(=O)NCc3ccccc3)c3c2cnc2ccc(F)cc23)cc1 25.9%
COc1ccc(OCC(=O)NCc2ccc3c(c2)CCN3C(=O)c2ccc(F)cc2)cc1 -17.7%
COC(=O)c1c(Cl)c(Cl)c(C(=O)OC)c(Cl)c1Cl -9.75% [at 116 µM, percent change from vehicle, -100% = no light]
COC(=O)c1ccc(OCC2c3cc(OC)c(OC)cc3CCN2C(=O)Cc2ccccc2)cc1 (centres undefined) -24.9%
Cn1cnnc1SCC(=O)Nc1ccc(C#N)cc1 -15.6%
CN(CC(=O)NCc1ccccc1)S(=O)(=O)c1ccc2[nH]c3c(c2c1)CCCC3 -26.9%
CCc1ccccc1NC(=O)C1(C)Cc2ccccc2C(=O)O1 (centres undefined) -17.6%
CCN(Cc1ccccc1)S(=O)(=O)c1cc(C(=O)Nc2cc(Cl)cc(Cl)c2)ccc1F -45.4%
COc1ccc(-c2[nH]c(-c3cccc(OC)c3)nc2SCC(=O)NC2CCCC2)cc1 -20.6%
CC(C)(C)C1CCc2c(sc(NC(=O)c3ccc(Cl)cc3)c2C(=O)NCc2ccco2)C1 (centres undefined) -7.41%
COc1ccccc1N1CCN(c2ncnc3c2cnn3-c2cccc(Cl)c2)CC1 8.47%
COc1ccc(-c2cn3nc(N4CCCC(C(=O)Nc5cc(C)cc(C)c5)C4)sc3n2)cc1 (centres undefined) 11%
Cc1ccc(Cn2c(CN3CCC(C(=O)NCCc4ccccc4)CC3)cc3ccccc32)cc1 -14.9%
N#Cc1ccc(C(=O)Nc2ccc3c(c2)N(C2CCCC2)C(=O)c2ccccc2S3)cc1 -27.5%
CC(C)Sc1ncc(Cl)c(C(=O)N(Cc2ccc(N(C)C)cc2)C2CCS(=O)(=O)C2)n1 (centres undefined) 0%
CCc1nn(CC(=O)Nc2ccc(N(CC)CC)cc2C)c(=O)c2cc3sccc3n12 -6.22%
O=C(NCCc1nc2ccccc2n1Cc1ccc(Cl)cc1Cl)c1ccco1 -41.1%
CCn1ccc2c(OCC(=O)NCc3ccc(F)cc3)cccc2c1=O -11.2%
CC(C)Cn1c(=O)c2ccccc2n2c(CCC(=O)NC(C)c3ccccc3)nnc12 (centres undefined) -10%
CCOc1ccc(C2C(C(=O)Nc3ccccc3)=C(C)Nc3nc(SCc4cc(C)ccc4C)nn32)cc1 (centres undefined) 0%
Cc1cc(C)c2nc(N(Cc3cccnc3)C(=O)c3cccs3)sc2c1 -14.4%
Oc1cc(-c2nc(-c3ccccc3)[nH]c2-c2ccncc2)ccc1Cl -24.7%
CN(C)c1ccc(/C=C(\C#N)c2nc(-c3ccc(Cl)c(Cl)c3)cs2)cc1 -5.06%
COc1cc(NC(=O)COCc2cc(-c3ccc4c(c3)OCO4)on2)cc(OC)c1 -7.12%
COC(=O)c1cc(S(N)(=O)=O)ccc1OC 0.103%
Cc1ccc(-n2c(=O)c3c(cnn3C)n(Cc3ccccc3F)c2=O)cc1 -31.4%
Cn1c2ccccc2c2cnn(CC(=O)Nc3ccccc3C(F)(F)F)c(=O)c21 -11.2%
CCn1cc(S(=O)(=O)c2ccccc2)c(=O)c2cc(F)c(N3CCN(c4ccccc4)CC3)cc21 -15.8%
CCN(CC)C(=O)c1sc2c(c1C)c(=O)n(-c1ccc(OC)cc1OC)c(=O)n2CC(=O)c1ccc(Cl)cc1 -10.6%
CCOc1ccc(N(C(C)C(=O)Nc2cc(Cl)ccc2OC)S(C)(=O)=O)cc1 (centres undefined) -36.6%
COc1cc(NC(=O)c2oc3c(c2C)-c2nn(Cc4cccc(Cl)c4)cc2CC3)cc(OC)c1 14.1%
O=C(Nc1ccc(OC(F)(F)F)cc1)C1CCN(S(=O)(=O)c2cccs2)CC1 -56.7%
CCN(CC)CCNC(=O)Nc1ccc2c(c1)N(Cc1ccccc1)C(=O)c1ccccc1S2 -19.9%
NC(=O)c1ccc2nc(-c3ccc(Oc4ccc(Cl)cc4)cc3)[nH]c2c1 18.8%
COc1ccc(N2CC(NC(=O)c3ccc(S(=O)(=O)N4CCOCC4)cc3)CC2=O)cc1OC (centres undefined) -14%
CCc1ccc(S(=O)(=O)N(C(=O)Oc2ccccc2)c2ccc3oc(C)c(C(=O)OC)c3c2)cc1 -90.7%
CCCCNC(=O)C1CCC(CNS(=O)(=O)c2ccc(Cl)cc2)CC1 (centres undefined) -17.4%
CCCCOc1cccc(C(=O)N(Cc2cccs2)c2ccc(OC)cc2)c1 -36.2%
CC(=O)NCCn1c(SCC(=O)Nc2ccc(C)cc2)nc2ccccc2c1=O 5.66%
CC(C)(C)c1ccc(-c2nc(SCC(=O)Nc3ccc(Cl)cc3)[nH]c(=O)c2C#N)cc1 -10.2%
Cc1c(-c2ccc(Cl)cc2)c(=O)oc2ccc(OC(=O)N3CCOCC3)cc12 -19.5%
COc1cccc(-n2c(-c3cccc(F)c3)nc3c(cnn3-c3ccc(C)cc3)c2=O)c1 -32.6%
CCc1cnc2c(c1SCC(=O)c1ccc(OC)cc1)c(=O)n(C)c(=O)n2C -31.9%
COc1ccccc1CNC(=O)CC(c1ccc(OC)c(OC)c1)N1Cc2ccccc2C1=O (centres undefined) -23.7%
CCCCN(CCCC)C(=O)C1CCN(S(=O)(=O)c2cccc3nsnc23)CC1 -34%
